In this data set the test system is primate Ig (pool of primate serum). Briefly: In vitro antigenicity (IVA) ELISA. The following applies: serum dilution value at OD 0.3 related to standard Z00342 set to 100; below 100 = lower primate Ig-binding. (In general: ELISA stands for enzyme-linked immunosorbent assay.)

Here are results for one substance from patent publication US8883120B2, “Polypeptides having affinity for HER2” (Affibody AB, priority 2007, dated 2014).

Substance “Affibody® molecule XI with DOTA: Affibody molecule XI with DOTA conjugated on an internal cystein (position 42) (YAKELRNAYWEIALLPNLTNQQKRAFIRKLYDDPSQSSELLCEAKKLNDSQA)” came in with an IVA-Value of 1.
